Several values for one entry are separate records, joined by “and”; a condition that tells them apart may be missing. Equal entries are not always repeated. About 1,200 (2.5%) of roughly 48,000 compounds were called active. Not shown: some 2% with an inconclusive outcome.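 The calls were made as follows: active = activation of at least 60% and not above a set upper limit (about 1 call in 100 departs from these limits); inconclusive = activation of 40% to 60%, or above that upper limit; inactive = activation under 40%.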 This is one part of the list. Some structures have more than one record in an assay (separate samples or runs), and their calls can disagree.
What follows are compounds tested against Probable G-protein coupled receptor 32 (Homo sapiens) (UniProt O75388) (assay: qHTS for Agonists of Human Resolvin D1 Receptor DRV1). Conditions: CHO-K1 GPR32 beta-arrestin PathHunter luminescence, 90 min; at 76.9 µM; stronger effect = higher value; zero percent set by DMSO-only wells.
UniProt O75388, sequence (O75388 whole entry, looked up): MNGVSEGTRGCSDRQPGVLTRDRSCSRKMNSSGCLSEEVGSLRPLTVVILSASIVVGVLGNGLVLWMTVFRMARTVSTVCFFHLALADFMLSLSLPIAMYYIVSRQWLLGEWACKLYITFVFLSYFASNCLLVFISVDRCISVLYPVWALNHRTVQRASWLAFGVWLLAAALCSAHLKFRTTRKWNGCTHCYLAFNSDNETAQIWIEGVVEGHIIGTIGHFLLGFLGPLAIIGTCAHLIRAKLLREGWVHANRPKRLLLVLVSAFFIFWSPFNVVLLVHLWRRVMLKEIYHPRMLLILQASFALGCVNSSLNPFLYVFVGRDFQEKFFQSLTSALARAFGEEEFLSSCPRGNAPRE
Outline: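 Using DMSO wells as EC0, agonist-induced signal was taken as chemiluminescence from beta-Gal reconstituted upon beta-arrestin recruitment to GPR32 in CHO-K1 cells after 90 min compound treatment.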
`COc1ccc(CNC(=O)Cc2ccc(NC(=O)N3CCCCc4ccccc43)cc2)cc1` was tested, and the activation was inactive: -8.85%. `CCOc1ccc(NC(=O)c2cc(S(=O)(=O)N3CCC(C)CC3)cn2C)cc1` was tested, and the activation was inactive: 23.8%. For `CC(Oc1ccccc1F)C(=O)NCC1(N2CCOCC2)CCCCC1` (centres undefined), the activation was inactive: -18.4%. `Cc1ccc(NC(=O)c2c(C)oc3ncnc(N4CCCCC4)c23)c(C)c1` was tested, and the activation was inactive: -22.5%. `Cc1cc(C)cc(NC(=O)c2cc(S(=O)(=O)N3CCCCC3)c[nH]2)c1` was tested, and the activation was inactive: -6.43%. In the case of `CC(C)(C)C(=O)OCOP(=O)(COCCn1cnc2c(N)ncnc21)OCOC(=O)C(C)(C)C`, the activation was inactive: -0.287%. In the case of `CCc1ccc(NC(=O)c2sc3nc(C)cc(C)c3c2NC(=O)c2ccccc2)cc1`, the activation was inactive: -0.593%. `COc1ccc(CNC(=O)C2CCN(c3nnc(C)c4c(C)n(-c5ccc(C)cc5)nc34)CC2)cc1` was tested, and the activation was inactive: 1.02%. For `Cc1ccccc1NC(=O)C1CCN(S(=O)(=O)c2cccc3nonc23)CC1`, the activation was inactive: -2%. With `COc1ccc(OC)c(-c2cc(C(=O)NCc3ccc(Cl)cc3)no2)c1` the activation was inactive: 4.2%. For `Cc1ccc(-c2nn3c(C)nnc3c3ccccc23)cc1S(=O)(=O)NC(C)(C)CO`, the activation was inactive: -13.3%. For `COc1cccc(CNC(=O)Nc2ccc3c(c2)N(C)C(=O)c2ccccc2S3)c1`, the activation was inactive: -12.2%. For `CCOc1ccc(N(C)S(=O)(=O)c2cc(-c3cnc(C)o3)ccc2OC)cc1`, the activation was inactive: -20.7%. `O=C(Nc1nnc2n1CCS2)c1cc(C(F)(F)F)cc(C(F)(F)F)c1` was tested, and the activation was inactive: -6.96%. `Cc1ccc(C)c(NC(=O)Cn2cc(S(=O)(=O)c3ccc(F)cc3)c(=O)c3cc(F)ccc32)c1` was tested, and the activation was inactive: 8.78%. With `CN(C)S(=O)(=O)c1ccc2c(c1)N(CC(=O)N1CCC(C(N)=O)CC1)CCS2` the activation was inactive: 5.24%. For `COc1ccc(/C=C/C(=O)Nc2cccc(F)c2)cc1`, the activation was inactive: 39.1%. For `CCOC(=O)C1CCCN(S(=O)(=O)c2cc(Br)cc3c2N(C(=O)CC)CC3)C1` (centres undefined), the activation was inactive: -1.61%. `CCOc1ccc(C2c3[nH]c4ccccc4c3CCN2C(=O)CCC2CCCC2)cc1` (centres undefined) was tested, and the activation was inactive: -33.9%. `CCN(CCCNC(=O)CN1N=C(c2ccc(C)cc2)CCC1=O)c1ccccc1` was tested, and the activation was inactive: -29.9%. In the case of `O=c1cc(-c2ccccc2)nc(SCc2nc(-c3cccc(C(F)(F)F)c3)no2)[nH]1`, the activation was inactive: 1.72%. With `Cc1nn(-c2ccc(N3CCCCC3)nn2)c(C)c1CCC(=O)Nc1cccc(F)c1` the activation was inactive: 11.7%. In the case of `Cc1ccn2c(=O)c(NC(=O)c3cccc([N+](=O)[O-])c3C)c(C)nc2c1`, the activation was inactive: -12.4%. `Fc1ccc(-n2ncc3c(NCCCc4ccccc4)ncnc32)cc1` was tested, and the activation was inactive: 41.1%. `Cc1ccc(COC(=O)c2ccc(-c3nnn(Cc4ccc(C)cc4)n3)cc2)cc1` was tested, and the activation was inactive: 6.64%. In the case of `CC(=O)C(Sc1nc(-c2ccccc2Cl)nc2c1c(=O)n(C)c(=O)n2C)C(=O)N(C)C` (centres undefined), the activation was inactive: -22.2%. With `CCCCN(CC)C(=O)Cn1cc2c(n1)-c1c(oc(C(=O)N3CCCC3)c1C)CC2` the activation was inactive: -9.92%. With `CN1CCC(=C2c3ccccc3CC(=O)c3sccc32)CC1` the activation was inactive: -9.33% and inactive: -17.1%. `CCC(=O)N1CCc2cc(S(=O)(=O)NC(CC(C)C)C(=O)NCc3cccc(OC)c3)ccc21` (centres undefined) was tested, and the activation was inactive: -7.47%. In the case of `COc1cccc(C(=O)c2cn(CC(=O)Nc3ccc4c(c3)OCCO4)c3nc(C)ccc3c2=O)c1`, the activation was inactive: -14.4%. With `Cc1ccc(NC(=O)NCc2c(-n3cccc3)sc3c2CCCC3)c(Cl)c1` the activation was inactive: -3.17%. With `Cc1ccc(CNC(=O)CCCn2nc(C)n3c(cc4sccc43)c2=O)cc1` the activation was inactive: -10.1%. With `Cc1ccc(CNC(=O)c2cn(C)c3ccc(S(=O)(=O)N4CCC(C)CC4)cc3c2=O)cc1` the activation was inactive: 9.2%. `CCN(Cc1ccccc1)S(=O)(=O)c1ccc(F)c(C(=O)Nc2ccc(C(C)C)cc2)c1` was tested, and the activation was inactive: -14.7%. With `Cc1cccc(C)c1NC(=O)c1cc2sccc2n1Cc1ccc(F)cc1` the activation was inactive: 33%. `COc1cc(NC(=O)C2CCN(S(=O)(=O)c3c(C)noc3/C=C/c3c(C)cc(C)cc3C)CC2)cc(OC)c1` was tested, and the activation was inactive: -8.91%. With `COc1ccc(OC)c(CNc2ncc(-c3ccc(Cl)cc3)n2C)c1` the activation was inactive: -71.1%. For `CCOC(=O)c1cccc(NC(=O)NC2COc3ccccc3C2)c1` (centres undefined), the activation was inactive: 22.4%. With `Cc1ccccc1CN1C(=O)c2ccccc2Sc2ccc(C(=O)NCCCN3CCOCC3)cc21` the activation was inactive: -23.5%. In the case of `O=C(NCCCc1ccccc1)c1ccc2c(c1)sc1nc(-c3ccc(F)cc3)cn12`, the activation was inactive: -7.93%. In the case of `COc1ccccc1N1CCN(CC(O)COc2cccc3ccccc23)CC1` (centres undefined), the activation was active: 96.7% and inactive: -23.8%. For `CC(=O)c1ccc(S(=O)(=O)Nc2cccc(-c3ccc(N4CCCC4)nn3)c2)cc1`, the activation was inactive: -17.4%. With `CCOc1ccc(CC(=O)NCc2ccc3c(c2)CCN3C(=O)c2ccc(F)cc2)cc1OCC` the activation was inactive: -7.87%. In the case of `Cc1ccc(Sc2c(C)nn(-c3ccccc3)c2OC(=O)CC(C)C)cc1`, the activation was inactive: -16.4%. For `CN1CCCC(CC2c3ccccc3Sc3ccccc32)C1` (centres undefined), the activation was inactive: 15.7%. For `CCOc1ccc(NC(=O)Cn2cc(C(=O)c3ccccc3)c(=O)c3cc(OC)ccc32)cc1`, the activation was inactive: -9.54%. For `O=C(Cc1ccc(F)cc1)NCCc1csc2nc(-c3ccc(Cl)cc3)nn12`, the activation was inactive: 12.6%. In the case of `COC(=O)c1cc(NC(=O)CCc2c(C)nc3nc(C)nn3c2C)cc(C(=O)OC)c1`, the activation was inactive: 4.52%. `CCN1C(=O)c2ccccc2S(=O)c2ccc(C(=O)N3CCN(c4cccc(Cl)c4)CC3)cc21` (centres undefined) was tested, and the activation was inactive: -14.9%. For `CCCCn1c(SCc2ccccc2C#N)nc2c(sc3ccccc32)c1=O`, the activation was inactive: 2.08%. In the case of `CC1=C(C(=O)Nc2ccccc2C)C(c2ccc[nH]2)n2ncnc2N1` (centres undefined), the activation was inactive: -0.838%. For `Cc1ccc(-n2ncc3c(=O)n(Cc4cccc(C(F)(F)F)c4)cnc32)cc1C`, the activation was inactive: -8.75%. With `Cc1cccc(CC(=O)Nc2cccc(-c3cn4cccnc4n3)c2)c1` the activation was inactive: 22.8%. `CCOC(=O)Cn1c(=O)cc(C)c2c(C)nn(-c3cccc(F)c3)c21` was tested, and the activation was inactive: -16.5%. For `Cc1ccc2c(c1)-c1onc(C(=O)N(C)c3ccc(F)cc3)c1CO2`, the activation was inactive: -6.71%. `CCc1ccc(S(=O)(=O)Nc2ccc3oc(C)c(C(=O)OCCOC)c3c2)cc1` was tested, and the activation was active: 64.4%. For `COc1ccc(CNC(=O)C2CCN(S(=O)(=O)Cc3ccccc3)CC2)cc1`, the activation was inactive: 26.8%. `Cc1cccc(NC(=O)c2cc3c(C)nn(-c4ccccc4)c3s2)c1` was tested, and the activation was inactive: -41.7%. With `CCOC(=O)c1[nH]c(C)c(C(=O)NCc2ccccc2Cl)c1C` the activation was inactive: 7.14%. With `O=C(NCc1ccc2c(c1)CCN2C(=O)c1ccncc1)c1cccc(F)c1` the activation was inactive: -10.5%. `CCCCN(c1ccccc1)S(=O)(=O)c1cc2c3c(c1)C(C)C(=O)N3CCC2` (centres undefined) was tested, and the activation was inactive: 1.17%. With `COc1ccc(NC(=O)c2ccc(-c3nc(CSc4ccccc4)c(C)o3)cc2)c(OC)c1` the activation was inactive: 9.73%. `O=C(CCc1nnc2n(Cc3ccccc3Cl)c(=O)c3ccccc3n12)Nc1ccccc1` was tested, and the activation was inactive: 5.98%. In the case of `COc1ccc(NC(=O)C(=O)NCCc2csc3nc(-c4ccccc4C)nn23)cc1`, the activation was inactive: -4.95%. For `O=C(C1CC1)N1CCc2cc(Br)cc(S(=O)(=O)Nc3ccc(C(F)(F)F)cc3)c21`, the activation was active: 65.4%. For `COCCNC(=O)c1ccc(NC(=O)N2CCCCc3ccccc32)cc1`, the activation was inactive: -17.2%. In the case of `CCOc1ccc(CNC(=O)CN2C(=O)CSc3c2c(C)nn3-c2ccccc2)cc1`, the activation was inactive: -22.2%. For `O=C(Nc1c(O)c2ccccc2oc1=O)c1ccccc1Cl`, the activation was inactive: 1.82%. With `Cc1ccc(CSc2nc3cccnc3n2Cc2nc(-c3ccccc3F)oc2C)cc1` the activation was inactive: -9.37%. For `COc1ccc(S(=O)(=O)N(CCc2ccccc2)CC(=O)NCc2ccc(C)cc2)cc1`, the activation was inactive: -4.55%. With `CCCC(=O)Nc1nnc(S(=O)(=O)N(C)c2ccccc2)s1` the activation was inactive: -11.6%. With `COC(=O)c1ccccc1NC(=O)CSc1c2c(nc3ccc(Cl)cc13)CCCC2` the activation was inactive: -13%. With `COc1ccccc1CCNC(=O)C1CCN(c2nc3ccccc3nc2C(F)(F)F)CC1` the activation was inactive: -24.4%. With `CCCN(CCC)C(=O)C(CCC(=O)O)NC(=O)c1ccccc1` (centres undefined) the activation was inactive: -4.12% and inactive: -10%. In the case of `O=C(NCC(c1cccnc1)N1CCN(Cc2ccccc2)CC1)C(=O)Nc1ccc(F)cc1` (centres undefined), the activation was inactive: -11.3%. `Cc1cc(C)c(S(=O)(=O)Nc2ccc(-c3ccc(N4CCCCC4)nn3)cc2)cc1C` was tested, and the activation was inactive: 10.4%. With `COc1cccc(CNC(=O)C2CCCN(c3nnc(-n4c(C)ccc4C)s3)C2)c1` (centres undefined) the activation was inactive: 25.2%. For `CCOC(=O)N1CCN(CCC(=O)Nc2cc(C)ccc2C)CC1`, the activation was inactive: -2.14%. For `CC(C)c1ccc(NC(=O)CN(C)S(=O)(=O)c2ccc3c(c2)n(C)c(=O)c(=O)n3C)cc1`, the activation was inactive: -9.83%. In the case of `CCn1cnc2cc(NCc3ccc(N(C)C)cc3)ccc21`, the activation was inactive: -19.7%. With `CCCCCCCCCCCCOS(=O)(=O)O` the activation was inactive: 10.1%. With `CCC1CCCCN1C(=O)CSc1nc(-c2ccc(OC)cc2)cc(C(F)(F)F)n1` (centres undefined) the activation was inactive: 3.13%. For `CCc1ccc(CNC(=O)c2cnc3sc(N4CCCCCC4)nn3c2=O)cc1`, the activation was inactive: 3.43%. With `CCOc1ccc(C(=O)Nc2ccc3nc(SCC(=O)N4CCCC4)sc3c2)cc1` the activation was inactive: -5.57%.
